{"source": "PubChem BioAssay AID1345082", "about": "(National Center for Advancing Translational Sciences (NCATS), 2018)", "note": "The whole screen tested about 94,000 compounds, of which about 4,000 (4.3%) were called active. Inconclusive results, whose numbers are uncertain, are shown with a selection of clear calls. Calls come from the whole dose curve; as a rule, active = well fitted inhibition curve with a large enough effect; inconclusive = small, poorly fitted or top-dose-only effect; inactive = no such curve, though single readings can be large or run the other way. Where the call is inconclusive, the potency comes from a doubtful curve fit. Potency is the fitted concentration of half-maximal effect; tags give direction and shape of the fitted curve."}
{"assay": "Cytotoxic Profiling in NIH 3T3 Cell Line of Diverse Libraries Using Quantitative High-Throughput Screening; note: nearly all actives have a fitted effect of over 55% in size", "details": "NIH 3T3 viability, CellTiter-Glo ATP luminescence, 48-72 h; series mostly up to 96.7 µM", "how_it_was_run": "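Cells were seeded at 400 per well, treated with pin-transferred compound, and kept 48 or 72 hr at 37 °C before CellTiter-Glo addition and luminescence imaging of cellular ATP.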"}
{"compound": "c1ccc(-c2cc(CC3(NCC4CCCCC4)COC3)no2)nc1", "Potency": "inactive"}
{"compound": "Cc1ccc(NC(=O)CN2C(=O)NC3(CCC(C)CC3)C2=O)cc1", "note": "(stereo not drawn)", "Potency": "inconclusive: 70.8 µM [inhibitor, single point]"}
{"compound": "COc1ccc(C(=O)N2CCC3(CC2)OC(=O)N(Cc2ccccc2F)C3(C)c2ccccc2)cn1", "note": "(stereo not drawn)", "Potency": "inconclusive: 35.5 µM [inhibitor, partial curve, poor fit]"}
{"compound": "CC[C@@]1(C(=O)O)C[C@H](C(=O)N(C)CC(=O)O)[C@H](c2ccc(OC)cc2)N1C", "Potency": "inconclusive: 89.1 µM [inhibitor, single point]"}
{"compound": "CC1=C[C@@H](CNC(=O)C2CC2)[C@H](C(C)C)C[C@H]1Cc1nnc(-c2cncn2C)o1", "Potency": "inconclusive: 56.2 µM [inhibitor, partial curve, poor fit]"}
{"compound": "CCOc1ccccc1CNC(=O)[C@@]12CCCC[C@H]1N(CCOC)C(=O)CC2", "Potency": "inconclusive: 50.1 µM [inhibitor, partial curve, poor fit]"}
{"compound": "Cc1ccc(C2=NC3(CCN(C(=O)c4cc(F)ccc4F)CC3)ON2)cc1", "Potency": "inconclusive: 50.1 µM [inhibitor, partial curve, poor fit]"}
{"compound": "Cc1nn(C)cc1CN(C)Cc1cn(C)nc1-c1ccc(C2CCCCC2)cc1", "Potency": "inconclusive: 70.8 µM [inhibitor, single point]"}
{"compound": "Cn1c([C@H]2CCN(Cc3cccc(C#N)c3)C2)nc2ccccc21", "Potency": "inconclusive: 112 µM [inhibitor, partial curve, poor fit]"}
{"compound": "CCc1nc2c(c(-c3ccc(O)cc3)n1)CN(C(=O)Cc1ccc(F)cc1)CC2", "Potency": "inconclusive: 50.1 µM [inhibitor, partial curve, poor fit]"}
{"compound": "COc1ccc2[nH]c3c(c2c1)CCNC31CCN(C(=O)c2ccncc2)CC1", "Potency": "inconclusive: 44.7 µM [inhibitor, partial curve, poor fit]"}
{"compound": "CC1(C)[C@H](Cc2cc(CN3CCCCC3)on2)C[C@@H]1N", "Potency": "inconclusive: 112 µM [inhibitor, partial curve, poor fit]"}
{"compound": "OCC1CCCN(c2ccc(-c3nc(-c4cccc(C(F)(F)F)c4)no3)cn2)C1", "note": "(stereo not drawn)", "Potency": "inconclusive: 35.5 µM [inhibitor, partial curve, poor fit]"}
{"compound": "CN(Cc1ccccc1)C(=O)C1(C)CCCc2cnc(Nc3cccnc3)nc21", "note": "(stereo not drawn)", "Potency": "inconclusive: 79.4 µM [inhibitor, partial curve]"}
{"compound": "O=C(c1ccccc1)N1CCCN(CCn2nc3n(c2=O)CCCC3)CC1", "Potency": "inactive"}
{"compound": "c1cc2c(cc1OC1CNC1)OCO2", "Potency": "inactive"}
{"compound": "O=C1Cc2c(-c3ccc4ccccc4c3)n[nH]c2CN1Cc1ccccn1", "Potency": "inconclusive: 8.91 µM [inhibitor, full curve, poor fit]"}
{"compound": "CN(Cc1cc(C[C@@H]2C[C@H](NC(=O)C(C)(C)C)C2(C)C)no1)c1ccccc1", "Potency": "inconclusive: 79.4 µM [inhibitor, partial curve]"}
{"compound": "O=C(Nc1ccc(F)cc1)c1ccc2c(c1)OCCN(CCC(F)(F)F)C2", "Potency": "inconclusive: 8.91 µM [inhibitor, full curve, poor fit]"}
{"compound": "O=C([C@H]1CCCO1)N1CCC(c2cc(-c3ccccc3Cl)n[nH]2)CC1", "Potency": "inconclusive: 79.4 µM [inhibitor, partial curve]"}
{"compound": "COc1ccc(C(=O)N2CCCC(n3cc(-c4nc(-c5ccccc5)no4)nn3)C2)cc1F", "note": "(stereo not drawn)", "Potency": "inconclusive: 17.8 µM [inhibitor, partial curve]"}
{"compound": "Cc1ccc2nc(CO[C@H]3CN(Cc4cn(C)c5ccccc45)C[C@H]3F)[nH]c2c1", "Potency": "active: 79.4 µM"}
{"compound": "Cc1nc(C)c(C(=O)N2Cc3ccccc3OC3(CCN(C(C)C)CC3)C2)s1", "Potency": "inactive"}
{"compound": "CCN(CC)CCNCc1ccc(-c2ccccc2)o1", "Potency": "inactive"}
{"compound": "C[S+](=O)([O-])N1CCC(c2nnc3n2C(C(=O)NCc2ccccc2F)CC3)CC1", "note": "(stereo not drawn)", "Potency": "inactive"}
{"compound": "Cc1ccccc1C(=O)NC1CCN(C(=O)c2ccc(-c3ncccc3C#N)cc2)CC1", "Potency": "inactive"}
{"compound": "COCCn1c(C)cnc1CC1CCCN(S(=O)(=O)c2cccc(OC)c2)C1", "note": "(stereo not drawn)", "Potency": "inactive"}
{"compound": "O=C(O)C1CCc2sc(C(=O)N3CCCC3)cc2C1", "note": "(stereo not drawn)", "Potency": "inconclusive: 70.8 µM [inhibitor, single point]"}
{"compound": "Cc1nnc(-c2cc(-c3cnn(C)c3)ccn2)n1-c1ccccc1", "Potency": "active: 89.1 µM"}
{"compound": "CCOCCNC(=O)C1CCN(c2nccc(Nc3ccccc3OC)n2)CC1", "Potency": "inconclusive: 50.1 µM [inhibitor, partial curve, poor fit]"}
{"compound": "O[C@]12CCNC[C@H]1CN(Cc1cccc(-c3ccccc3)c1)CC2", "Potency": "inconclusive: 50.1 µM [inhibitor, partial curve, poor fit]"}
{"compound": "O=C(Cc1ccc2c(c1)OCO2)N1CCNc2cnc(Nc3cccc(C(F)(F)F)c3)nc2C1", "Potency": "inconclusive: 44.7 µM [inhibitor, partial curve, poor fit]"}
{"compound": "O=C(NC1CC1)c1nc(-c2ccc(F)cc2)c2ccccn12", "Potency": "inconclusive: 50.1 µM [inhibitor, partial curve, poor fit]"}
{"compound": "c1coc(-c2nc(C3CCOC3)nn2C2Cc3ccccc3C2)c1", "note": "(stereo not drawn)", "Potency": "inconclusive: 50.1 µM [inhibitor, partial curve, poor fit]"}
{"compound": "CCC(CC)C(=O)NC[C@@H]1C=C(C)[C@H](Cc2nc3ccccc3n2C)C[C@H]1C(C)C", "Potency": "active: 35.5 µM"}
{"compound": "OCC1(Cc2ccccc2)CCN(Cc2ccccc2-c2ccco2)CC1", "Potency": "inconclusive: 56.2 µM [inhibitor, partial curve, poor fit]"}
{"compound": "O=C(c1cccc(Cl)c1)N1CCc2nc(C3CC3)nc(-c3ccc(Cl)cc3)c2C1", "Potency": "inconclusive: 50.1 µM [inhibitor, partial curve, poor fit]"}
{"compound": "O=C(Cc1ccc(F)cc1)N1CC2CC(C1)[C@H]1CCCC(=O)N1C2", "note": "(stereo partly drawn)", "Potency": "inactive"}
{"compound": "COCc1noc([C@@H]2CN(C3CNC3)C[C@H]2C(N)=O)n1", "Potency": "inactive"}
{"compound": "Cc1c(-c2ccccc2F)[nH]c2ccc(CNS(=O)(=O)C3CC3)cc12", "Potency": "inconclusive: 50.1 µM [inhibitor, partial curve, poor fit]"}
{"compound": "CCN(CC)CC[C@H]1CN(C(=O)NC(C)C)CC[C@H]1CC(=O)O", "Potency": "inactive"}
{"compound": "Cc1noc(-c2cccc(OC3CN(C(=O)NCC(C)C)C3)c2)n1", "Potency": "inactive"}
{"compound": "C=CCCC(=O)N1c2cccc3c2[C@@H](C[C@H]1C(N)=O)CN(c1ccccc1)C3=O", "Potency": "inconclusive: 35.5 µM [inhibitor, partial curve, poor fit]"}
{"compound": "COc1ccc(CC(=O)N2[C@@H](c3ccco3)[C@@H](C(=O)O)C[C@]23CCCCN(C)C3=O)cc1", "Potency": "inconclusive: 79.4 µM [inhibitor, partial curve, poor fit]"}
{"compound": "Cc1cccc(-c2noc([C@@H]3C[C@@H](O)CN3C3CCOCC3)n2)c1", "Potency": "inactive"}
{"compound": "O=C1CC(c2ccccc2)N(Cc2ccncc2)CCCN(C(=O)NCc2ccccc2)CCN1", "note": "(stereo not drawn)", "Potency": "inactive"}
{"compound": "CC1(C(=O)N2CCC(c3ccccc3)CC2)CCc2cnc(Nc3ccncc3)nc21", "note": "(stereo not drawn)", "Potency": "inconclusive: 100 µM [inhibitor, single point]"}
{"compound": "O=C(Cc1cccc(Cl)c1)N1CCC(C(=O)N2CCCC2c2nc3ccncc3[nH]2)CC1", "note": "(stereo not drawn)", "Potency": "inactive"}
{"compound": "COc1cccc(S(=O)(=O)N2CCC(n3cnnc3C(C)C)CC2)c1", "Potency": "inconclusive: 14.1 µM [inhibitor, partial curve, poor fit]"}
{"compound": "CCOc1ccccc1C1NC(=O)N(CC(=O)Nc2ccc(CC)cc2)C2=C1C(=O)OC2", "note": "(stereo not drawn)", "Potency": "inconclusive: 50.1 µM [inhibitor, single point]"}
{"compound": "CNC(=O)c1cc(C2CC2)nc2c1c(C1CCN([S+](C)(=O)[O-])C1)nn2C", "note": "(stereo not drawn)", "Potency": "inactive"}
{"compound": "Cc1ccc(CN2CCC(N3CCCC(C(=O)NC4CC4)C3)CC2)cc1", "note": "(stereo not drawn)", "Potency": "inconclusive: 89.1 µM [inhibitor, single point]"}
{"compound": "O=C(Nc1ccccc1)NC1CCN(c2nc3ncccc3o2)CC1", "Potency": "inconclusive: 89.1 µM [inhibitor, partial curve, poor fit]"}
{"compound": "Cc1ccc(C(=O)Nc2cc(-c3ccccn3)nn2-c2ccccc2)cc1", "Potency": "inactive"}
{"compound": "Cc1ccccc1S(=O)(=O)N1CCC2(CC1)CC(CC(=O)N1CCCC1)CCO2", "note": "(stereo not drawn)", "Potency": "inconclusive: 44.7 µM [inhibitor, partial curve, poor fit]"}
{"compound": "Cn1ccc(NCc2nc3c(n2Cc2ccccc2)C(=O)N(Cc2cccc(Cl)c2)CCN3)n1", "Potency": "inconclusive: 50.1 µM [inhibitor, partial curve, poor fit]"}
{"compound": "O=C(NC1CCCN(c2cc(-c3ccc(F)cc3)[nH]n2)C1)c1cccs1", "note": "(stereo not drawn)", "Potency": "inconclusive: 50.1 µM [inhibitor, single point]"}
{"compound": "O=C(CC1C(=O)NCCN1Cc1ccc(-c2ccccc2)cc1)NCc1ccco1", "note": "(stereo not drawn)", "Potency": "inconclusive: 89.1 µM [inhibitor, single point]"}
{"compound": "COc1ccc(-c2[nH]nc3ncc(C(=O)NCc4ccc(F)cc4)nc23)c(C)c1", "Potency": "active: 22.4 µM"}
{"compound": "COC1CN(c2cccc(F)c2)C12CCN(S(=O)(=O)Cc1ccccc1F)CC2", "note": "(stereo not drawn)", "Potency": "inconclusive: 17.8 µM [inhibitor, full curve]"}
{"compound": "COc1ccc(-c2noc(CCCC(=O)NCCc3noc(-c4ccccc4)n3)n2)cc1OC", "Potency": "inconclusive: 44.7 µM [inhibitor, partial curve, poor fit]"}
{"compound": "CN(C)Cc1cc(C[C@@H]2C[C@H](NCc3ccccc3O)C2(C)C)no1", "Potency": "inconclusive: 79.4 µM [inhibitor, partial curve, poor fit]"}
{"compound": "O=C(C1CCN(c2cnn(CC3CC3)c(=O)c2)C1)N1CCc2ccccc2C1", "note": "(stereo not drawn)", "Potency": "inconclusive: 50.1 µM [inhibitor, partial curve, poor fit]"}
